The text below walks through data of the RNAGym collection of RNA variant scans (doi:10.1073/pnas.2313332121).

B1: TPR 5TU (parent)
chain: GGAUCUUCUCGAUCUAACAAAAAAGACAAAUCUGCCACAAAGCUUGAGAGCAUCUUCGGAUGCAGAGGCGGCAGCCUUCGGUGGCGCGAUAGCGCCAACGUUCUCAACUAUGACACGCAAAACGCGUGCUCCGUUGAAUGGAGUUUAUCAUG

Variants at the floor of the assay are shown more often than the library holds them.

The variants in the data set derive from B1. Description: polymerase ribozyme fitness, log enrichment relative to wild type (log ratio); higher = more active; in vitro selection for triplet polymerase activity. In short, it runs like this: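 A single round of triplicate in vitro selection, including frozen incubation at −7 °C, was applied to PCR-built, transcribed mutant libraries of each subunit of a heterodimeric triplet polymerase ribozyme. Illumina sequencing of input and output libraries retained genotypes with ≥10 input reads and ≥1 read per output. Fitness is the base-2 logarithm of genotype enrichment divided by wild-type enrichment, from inverse-variance-weighted replicate averages.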
GGAUCUUCUCCAUCUAACAAAAAAGACAAAUCUGCCACAAAGCUUGAGAGCCUCUUCGGAUGCAGAGGCGGCAGCCUUCGGUGGCGCGAUAGCGCCAUCGUUCUCAACUAUGACACGCAAAACGCGUGCUCCGUUGAAGCGAGUUUAUCAUG [G11C A52C A98U U139G G140C]: the “polymerase ribozyme fitness (log ratio)” value is not above -4.2.

In the case of GGAUCUUCUCCAUCUAACAAAAAAGACAAAUCUGCCACAACACUUGAGAGCAUCUUCGGAUGCAGAGGCGGCAGCGUUCGGCGGCCCGAUAGCGUCAACGUUCUCAACUAUGACACGCAAAACGUGUGCUCCGUUGAAUGGAGUUUAUCAUG [G11C A41C G42A C76G U82C G86C C95U C125U], the “polymerase ribozyme fitness (log ratio)” value was not above -4.2.

Consider GGAUCUUCUCCAUCUACCAAAAAAGACAAAUCUGCAACAAAGCUUGAGAGCAUCUUCAGAUGCAGAGGCGGCAGCCUUCGGUGGCGCGAUAGCGCCAACGUUCUCAACUAUGACACGCAAAACGCGUGCUCCGUUGAAUGGAGUUUAUCAUG [G11C A17C C36A G58A], for which the “polymerase ribozyme fitness (log ratio)” value was not above -4.2.

GGAUCUUCUCCAUCUAACAAAAAAGACAAAUCUGCCACAAUGCUUGAGAGCAUCUUCGGAUGCAGAGGCGGCAGCCUUCGGUGGCGCGAUAGAGUCAACGUUCUCAACUAUGACACGCAAAACGCGUGCUCCGUUGAAUUGAGUUUUUCAUG [G11C A41U C93A C95U G140U A147U]: the “polymerase ribozyme fitness (log ratio)” value is not above -4.2.

As to GGAUCUUCUCCGUCUAACACAAAAGACAAAUCUGCCACAGAGCUUGAGAGCAUCUUCGGAUGCAGAGGCGGCAGCCUUCGGUGGCGCGAUAGUGCCAACGUUCUCAACUAUGACACGCAAAACGCGUGCUCCGUCGAAUGGAGUUUAUCAUG [G11C A12G A20C A40G C93U U135C], the “polymerase ribozyme fitness (log ratio)” value is not above -4.2.

Consider GGAUCUUCUCCAUCUACCAAAAAAGACAAAUCUGCCACAAAGCUUGAGACCAUCUUCGGUUGCAGAGGCGGCAGCGUUCGGUCGCGCGAUAGCGCCAACGUUCUCAACUAUGACACGCAAAACGAGUGCUCCGUUGAAUGGAGUUUAUCAUG [G11C A17C G50C A60U C76G G83C C125A], for which the “polymerase ribozyme fitness (log ratio)” value is not above -4.2.

Turning to GGAUCUUCUCCAUCUAACAGAAAAGACAAAUCUUCCACAAAGCUUGAGAGCAUCUUCGGAUGCAGAGGCGGCAGCCUUCGGUGGCGCGAUAGCGCCAACGUUCUCAACUAUGACACGCAAAACGCGUGCUCCGUUGUAUGGAGUUUAUCAUG [G11C A20G G34U A137U], the “polymerase ribozyme fitness (log ratio)” value is not above -4.2.

In the case of GGAUCUUCUCCAUGUAACAAAAAAGACAAAUCUGCCACAAAGCUUGAGAGCAUCUUCGGAUGCAGAGGCGGCAGCCUUCGGUGGCGAGAUAGCGCCAACGUUCUCAACUAUGACACGCAACACGCGUGCUCCGUUGAAUGGAGAUUAUCAUG [G11C C14G C87A A121C U144A], the “polymerase ribozyme fitness (log ratio)” value was not above -4.2.

For GGAUCUUCUCCAUCUAACAAAAUAGACAAAUCUGCCACAAAGCUUGAUAGCAUCUUUGGAUGCAGAGGCGGCAGCCUUCGGUGGCGCGAUAGGGCCAACGUUCUCAACUAUGACACGCAAAACGCGUGCUCCGUUGAAUGGAGUUUAUCAUG [G11C A23U G48U C57U C93G], the “polymerase ribozyme fitness (log ratio)” value was not above -4.2.

In the case of GGAUCUUCUCCAUCUAACAAAAAAGCCAAAUCUGCCACAAAGCUGGAGAGCAUUUUCGGAUGCAGAGGCGGCAGCCUUCGGUGGCGCGAUAGCGCCAACGUUCUCAACUAUGACACGCAAAACGCGUGCUCCGUUGAAUGGAGUUUAUCAUG [G11C A26C U45G C54U], the “polymerase ribozyme fitness (log ratio)” value was not above -4.2.

Regarding GGAUCUUCUCCAUCUAACAAAAAAGACAAAUCUGCCACAAAGCUUGAGCGCAUCUUCGGAUGCAGAGGCGGCAGGCUUCGGUGGGGCGAUAGCGCCAACGUUCUCAACUAUGACACGCAAAACGCGUGCUCCGUUGAAUGGAGUUUAUCAUG [G11C A49C C75G C85G], the “polymerase ribozyme fitness (log ratio)” value was not above -4.2.

Consider GGAUCUUCUCCAUCUAACAAAAAAGACAAAUCUGCCACGAAGCUUGAGAGCAUCUUCGGAUGCACAGGCGGCAGCCUUCGGUGGGGCGAUAGCGCCAACGUUCUCAACUAUGACACGCAAAACGCGUGCUCCGUUGAAUGGAGUUUAUCAUG [G11C A39G G65C C85G], for which the “polymerase ribozyme fitness (log ratio)” value is not above -4.2.

Regarding GGAUCUUCUCCAUCUAACAAAAAUGACAAAUCUGCCACAAAGCUUGAGAGCGUCUUCGCAUGCAGAGGCGGCAACCGUCGGUGGCGGGAUAGCGCCAACGUUCUCAACUAUGACACGCAAAACGCGUGCUCCGUUGAAUGGAGUUUAUCAUG [G11C A24U A52G G59C G74A U77G C87G], the “polymerase ribozyme fitness (log ratio)” value was not above -4.2.

In the case of GGAUCUUCUCCAUCUAACAAAAAAGUCAAAUCUGCCACAAAGCUUGAGAGCAGCUUCGGAUGCAGAGGCGGCAGCCUUCGGUGGCGGGAUAGCGCCAAAGUUCUCAACUAUGACACGCAAAACGCGUGCUCCGUUGAUUGGAGUUUAACAUG [G11C A26U U53G C87G C99A A138U U148A], the “polymerase ribozyme fitness (log ratio)” value was not above -4.2.

Turning to GGAUCUUCUCAAUCUAACAAAAAAGACAAAUCUGCCACAAAGCUUGAGAGCAUCUUCGGAUGCAGAGGCGGCAGCCUUCGGGGGUGCGAUAGCGACAACGUUCUCAACUUUGACACGCAAAACGCGUGCUCCGUUGAAUGGAGUUUAUCAUG [G11A U82G C85U C95A A110U], the “polymerase ribozyme fitness (log ratio)” value is not above -4.2.

On to GGAUCUUCUCCAUCUAACAAAUAAGACAAGUCUGCCCCAAAGCUUGAGAGCAUCUUCGGAUGCAGAGGCGGCAGCCUUCGGUGGCGCGAUGGAGCCACCGUUCUCAACUAUGACACGGAAAACGCGUGCUCCGUUGAAUGGAGUUUAUCAUG [G11C A22U A30G A37C A91G C93A A98C C118G], for which the “polymerase ribozyme fitness (log ratio)” value is not above -4.2.

For GGAUCUUCUCCAUCUAGCAAAAAAUACAAAGCUGCCACAAAGCUUGAGAGCAUCUUCGGAUGCAGAGGCGGCAGCCUUCGGUGGCGUGAUAGCGCCAACGUUCUCAACUAUGACACGCAAAACGCGUGCUCCGUUGAAUGGAGUUUAUCAUG [G11C A17G G25U U31G C87U], the “polymerase ribozyme fitness (log ratio)” value was not above -4.2.

In the case of GGAUCUUCUCCGUCUAACAAAAAAGACAAAUCUGCCACAAAGCUUGAGAGCAUCAUCGGAUGCAGAGGCGGCAGCCUUCGGUUGCGCGAUAGCGCCAACGUUCUCUACUAUGACACGCAAAACGCGUGCUCCGUUGAAUGGAGUUUAUCAUG [G11C A12G U55A G83U A106U], the “polymerase ribozyme fitness (log ratio)” value is not above -4.2.

As for GGAUCUUCUCCAUCUAACAAAAAAGACAAAUCUGCCACAAAGCUUGAGAGCGUCUUCGGAUGCAGAGGCGGCAGCCUUCGGUGGCGCGAUAGCGCCAACGUUCUCAACUAUGACAUGCAAAACGCGUGCUCCGUAGAAUUGAGUUUAUCAUG [G11C A52G C116U U135A G140U], the “polymerase ribozyme fitness (log ratio)” value was not above -4.2.
